{"source": "PubChem BioAssay AID1508623", "about": "(National Center for Advancing Translational Sciences (NCATS), 2021)", "note": "The whole screen tested about 48,000 compounds, of which about 450 (0.94%) were called active. Inconclusive results, whose numbers are uncertain, are shown with a selection of clear calls. Calls come from the whole dose curve; as a rule, active = well fitted inhibition curve with a large enough effect; inconclusive = small, poorly fitted or top-dose-only effect; inactive = no such curve, though single readings can be large or run the other way. Potencies beside an inconclusive call are fits to weak or partial responses and may not hold up. Potency is the fitted concentration of half-maximal effect; tags give direction and shape of the fitted curve.", "data": [{"assay": "Primary qHTS for Identification of Small Molecule Inhibitors of Huntingtin Promoter Activity; note: nearly all actives have a fitted effect of over 50% in size", "settings": "HEK293 HTT promoter firefly luciferase reporter (activity 0% = vehicle and -100% = no light), 24 h; activity change, negative = inhibition: at 57.5 µM (top of the series)", "summary_of_the_method": "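Luminescence was read after Dual-Glo reagent and a 10 min room-temperature incubation. Values were normalized to vehicle (0% activity) and zero RLU (-100% activity). Reporter HEK293 cells had been exposed to compounds (up to 57.5 uM final) for 24 h.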", "values": [{"molecule": "CCOc1ccc(S(=O)(=O)N(CC(=O)NCCc2ccc(OC)cc2)c2ccccc2)cc1", "activity change, negative = inhibition": "inactive: -14.2%"}, {"molecule": "Cc1ccc(S(=O)(=O)N2CCCc3cc(NS(=O)(=O)c4ccccc4)ccc32)cc1", "Potency": "inconclusive: 39.8 µM [inhibitor, single point]"}, {"molecule": "Cc1cc(C)c(/C=C/c2onc(C)c2S(=O)(=O)N2CCC(C(=O)Nc3cccc(C)c3C)CC2)c(C)c1", "Potency": "inconclusive: 7.94 µM [inhibitor, single point]"}, {"molecule": "CCOC(=O)c1c(C)oc2nc(C)nc(N(C)Cc3ccccc3)c12", "Potency": "inconclusive: 39.8 µM [inhibitor, single point]"}, {"molecule": "O=C(C1CCCN(S(=O)(=O)c2cccc3nonc23)C1)N1CCN(c2cccc(C(F)(F)F)c2)CC1", "note": "(stereo not drawn)", "Potency": "inconclusive: 22.4 µM [inhibitor, partial curve, poor fit]"}, {"molecule": "CCOc1ccc(NC(=O)c2cc(S(=O)(=O)N3CCN(c4ccccc4F)CC3)ccc2F)cc1", "Potency": "inconclusive: 14.1 µM [inhibitor, partial curve, poor fit]"}, {"molecule": "COc1ccccc1CNC(=O)C(=O)NCC(c1cccs1)S(=O)(=O)c1cccs1", "note": "(stereo not drawn)", "activity change, negative = inhibition": "inactive: -23.9%"}, {"molecule": "COc1cccc(CNC(=O)c2nc(Cn3nc(C)c(Br)c3C)no2)c1", "activity change, negative = inhibition": "inactive: -28%"}, {"molecule": "CCOc1ccc(Nc2c(S(=O)(=O)c3ccc(C)cc3)cnc3ccc(F)cc23)cc1", "Potency": "inconclusive: 20 µM [inhibitor, partial curve, poor fit]"}, {"molecule": "Cc1ccc2oc(C(=O)N(Cc3sccc3C)C3CCS(=O)(=O)C3)c(C)c2c1", "note": "(stereo not drawn)", "Potency": "inconclusive: 31.6 µM [inhibitor, single point]"}, {"molecule": "CON=C(C(=O)N[C@@H]1C(=O)N2C(C(=O)O)=C(Cn3ccc(=N)n3CCO)CS[C@H]12)c1csc(N)n1", "activity change, negative = inhibition": "inactive: 9.85%"}, {"molecule": "Cc1ccc(CCNC(=O)CN(c2ccc(C)cc2)S(=O)(=O)N(C)C)cc1", "activity change, negative = inhibition": "inactive: -13.1%"}, {"molecule": "CC(C)OCc1cc(CN2CCN(c3cccc(C(F)(F)F)c3)CC2)c(O)c2ncccc12", "Potency": "inconclusive: 8.91 µM [inhibitor, full curve, poor fit]"}, {"molecule": "CN(C)c1ccc(CNC(=O)C2CCN(Cc3cc4ccccc4n3Cc3ccccc3)CC2)cc1", "Potency": "inconclusive: 25.1 µM [inhibitor, partial curve, poor fit]"}, {"molecule": "Cc1ccc(-c2noc(CSc3nnc(C)n3-c3ccc(C)c(C)c3)n2)cc1", "Potency": "inconclusive: 35.5 µM [inhibitor, single point]"}, {"molecule": "CC(C)CN(CC(C)C)CC(O)Cn1cc(/C=C/C(=O)c2ccccc2)c2ccccc21", "note": "(stereo not drawn)", "activity change, negative = inhibition": "inactive: -7.92%"}, {"molecule": "CCc1ccc(NC(=O)C2=CC(c3cccs3)=NS(=O)(=O)N2C)cc1", "Potency": "inconclusive: 31.6 µM [inhibitor, single point]"}, {"molecule": "COc1ccc(C(=O)NCc2ccc3c(c2)CCN3C(=O)c2ccc(F)cc2)cc1", "Potency": "inconclusive: 28.2 µM [inhibitor, single point]"}, {"molecule": "CCOc1ccccc1NC(=O)C1CCCN1S(=O)(=O)c1ccc2nc(-c3ccccc3)[nH]c2c1", "note": "(stereo not drawn)", "Potency": "inconclusive: 25.1 µM [inhibitor, partial curve, poor fit]"}, {"molecule": "CCCCCn1cc2c(c1-c1ccccc1Br)c(=O)n(C)c(=O)n2C", "Potency": "inconclusive: 39.8 µM [inhibitor, single point]"}, {"molecule": "CCOc1ccc2ncc3c(-c4cccc(OC)c4)nn(-c4ccccc4)c3c2c1", "activity change, negative = inhibition": "inactive: -20.3%"}, {"molecule": "Cc1ccc2occ(CC(=O)Nc3ccc(S(=O)(=O)N4CCC(C)CC4)cc3)c2c1", "Potency": "inconclusive: 22.4 µM [inhibitor, partial curve, poor fit]"}, {"molecule": "CCC(C)NC(=O)Cn1c(=O)n(Cc2ccc(C(=O)NCc3ccc(C)cc3)cc2)c(=O)c2ccccc21", "note": "(stereo not drawn)", "activity change, negative = inhibition": "inactive: -13.5%"}, {"molecule": "CCN(CCCNC(=O)CN1N=C(c2ccccc2)CCC1=O)c1ccccc1", "Potency": "inconclusive: 14.1 µM [inhibitor, partial curve]"}, {"molecule": "COc1ccc(S(=O)(=O)N2CCC(C(=O)Nc3cc(C(F)(F)F)ccc3Cl)CC2)cc1", "Potency": "inconclusive: 28.2 µM [inhibitor, single point]"}, {"molecule": "CCCOc1ccc(-c2cc(C(F)(F)F)c(C#N)c(SCCC(=O)O)n2)cc1", "Potency": "inconclusive: 25.1 µM [inhibitor, single point]"}, {"molecule": "CS(=O)(=O)N1CCc2cc(C(=O)Nc3ccc(C(F)(F)F)cc3)ccc21", "Potency": "inconclusive: 25.1 µM [inhibitor, partial curve, poor fit]"}, {"molecule": "COc1ccccc1CNC(=O)CSc1nnc(C)c2c(C)n(-c3ccccc3)nc12", "Potency": "inconclusive: 39.8 µM [inhibitor, single point]"}, {"molecule": "CC(=O)N1CCCc2cc(S(=O)(=O)N3CCCC(C(=O)NCc4ccc(C)cc4)C3)ccc21", "note": "(stereo not drawn)", "Potency": "inconclusive: 15.8 µM [inhibitor, partial curve]"}, {"molecule": "CCOc1ccc(NCc2nc3ccccc3n2CCOc2ccc(C)cc2)cc1", "Potency": "inconclusive: 22.4 µM [inhibitor, partial curve, poor fit]"}, {"molecule": "CCc1nn2c(=O)c(S(=O)(=O)Nc3ccc(C(C)C)cc3)c(C)nc2s1", "Potency": "inconclusive: 17.8 µM [inhibitor, partial curve, poor fit]"}, {"molecule": "Cc1cccc(C)c1NC(=O)CS(=O)(=O)c1nc(-c2ccc(Cl)cc2)cn1-c1ccccc1", "Potency": "inconclusive: 39.8 µM [inhibitor, single point]"}, {"molecule": "CC1=C(C(=O)Nc2ccc(Cl)cc2)C(c2ccccc2)n2ncc(C(=O)Nc3ccccc3)c2N1", "note": "(stereo not drawn)", "Potency": "active: 25.1 µM"}, {"molecule": "CCSc1ncc(Cl)c(C(=O)Nc2sc3c(c2C(=O)NCCCOC)CCCC3)n1", "activity change, negative = inhibition": "inactive: 1.58%"}, {"molecule": "CC(=O)N1CCc2c(sc3c2c(=O)n(CCc2ccccc2)c(=O)n3Cc2ccccc2C)C1", "Potency": "inconclusive: 22.4 µM [inhibitor, single point]"}, {"molecule": "COc1ccc(NC(=O)CSc2nc(-c3cccc(C)c3)[nH]c2-c2ccccc2)cc1OC", "Potency": "inconclusive: 39.8 µM [inhibitor, single point]"}, {"molecule": "Cc1ccc(C)c(-c2ccc(=O)n(Cc3c(F)cccc3Cl)n2)c1", "Potency": "inconclusive: 35.5 µM [inhibitor, single point]"}, {"molecule": "CC(C)Sc1ncc(Cl)c(C(=O)Nc2ccc(S(=O)(=O)N3CCCCC3)cc2)n1", "Potency": "inconclusive: 39.8 µM [inhibitor, single point]"}]}]}
